Sequences and labels used below:
B1: chr5:128440902:128440903:+_ENSG00000066583_ENST00000173527|hu_mus|hu_hu_hu_mus_True|18_68 (ssRNA)
RNA: GGGAGUUCUACAGUCCGACGAUCUUGAACGGUGCUGCCAAGUCCUUUGGGGUAUUGUUCCGUUAUGAUAACAGGAAUCCCUAAGAUCCGAGCUCCUUGCAACAGUCUCUGUCCCACGCUAAUAAUAUCCCCAAAGUAUUUGAUCAACAGAGGAUUGAGCAUCA
B2: chr13:120183613:120183614:-_ENSMUSG00000025453_ENSMUST00000099149|mus_mus|FALSE|FALSE (ssRNA)
RNA: GGGAGUUCUACAGUCCGACGAUCGUAGAUGAAGCUAAUUAGAGUUCCUGAUGGCUUUAAAAAGUCAGCUUCGUGAGCGCCUAACGUCGGGUUCACCAUGGGGGCCCUCACUUUGACCACCAGAUCAGAAGCCAGAACUUCCUUCAACAGAGGAUUGAGCAUCA
B3: chr4:19447016:19447017:-_ENSMUSG00000028228_ENSMUST00000029885|mus_mus|FALSE|FALSE (ssRNA)
RNA: GGGAGUUCUACAGUCCGACGAUCUUUAUAAAAUGAUAAUCUAGAAGUUGGAAAUGCUUUUAUUUCAAAUUGCAGAAAACUAUGAAUUACUUUAAUUUGCCAGAAUCACAGCUCCUAUGAAUGGCAUUUAUAAAACUUGAUCAACAACAGAGGAUUGAGCAUCA
B4: chr10:33214929:33214930:-_ENSG00000150093_ENST00000302278|hu_hu|hu_hu_hu_mus_True|98_108 (ssRNA)
RNA: GGGAGUUCUACAGUCCGACGAUCAACAAGUUCAUUAAAUACUUCUCCUCUGUCAGUAAGACUAAGCACAUUUUUGUAGCUAAAUGGGCUGGUGCAGUUUUGUUCACUUGUACAAGGAUUUCUUAGCUUUGCUGGGGUUGUGCUCAACAGAGGAUUGAGCAUCA
B5: chr7:30656748:30656749:+_ENSG00000106105_ENST00000389266|hu_hu|FALSE|FALSE (ssRNA)
RNA: GGGAGUUCUACAGUCCGACGAUCAUCUGGAGAUAUUCCAACCUUCGUGAGGUAGAGGUAGAUGCGGCCAAUGAAAUAGCCUAAUACUGUGUUAUUAAUCACACCCUGUUCAACAGCAUCUCCCAGGCGCAUUUUCCGAGCGGACAACAGAGGAUUGAGCAUCA
B6: chr12:82822756:82822757:-_ENSMUSG00000042724_ENSMUST00000035987|mus_mus|FALSE|FALSE (ssRNA)
RNA: GGGAGUUCUACAGUCCGACGAUCGGCUGAGGAGGAGAGGCAGUAGACGGAUUUGGCUGAAUGACUCUGUAGUGUCACCCUAAAAGGAAAGGAAGACCGGAGGGUGGGGACAUAUGUGCACACCCCUCUCUAUACAGUCAGAGCCAACAGAGGAUUGAGCAUCA
B7: chr12:42180722:42180723:-_ENSMUSG00000036295_ENSMUST00000043884|mus_hu|mus_mus_mus_hu_True|68_68 (ssRNA)
RNA: GGGAGUUCUACAGUCCGACGAUCCUGUAGGAGAAGAAUCUGUGUGUUAGCUGGCAAUCUGGCUGGGAAGUUUAAAAGACCUAAAUCAUUACAAUCCACUGUAGAUGCUUCCAUAUAAAUGGAUCUGGGUGUAAACCAAGGCCUCAACAGAGGAUUGAGCAUCA
B8: chr1:135029974:135029975:+_ENSMUSG00000046062_ENSMUST00000052529|mus_hu|FALSE|FALSE (ssRNA)
RNA: GGGAGUUCUACAGUCCGACGAUCACGACAGCCUUUCUCAUUUUCCCCUGAUGUUUGAAAAGGAGCCUUAAAAUUUAAAGGGUUGUAGGGGUCAUCAGAAUUACAGAAUGAGUUCCACAGUUUGAGACUCUCUGCUUCAUCUGCCAACAGAGGAUUGAGCAUCA
B9: 153057806_153057926_1113_3pUTR_ENSMUSG00000051413_ENSMUST00000056924|mouse|control|control (ssRNA)
RNA: GGGAGUUCUACAGUCCGACGAUCAGGGAUGUGGGCACCAUACAUACCCAUGGGCAACAUGCCAGGAAAGGCCUUAGCCCCCAUCACGUCCCGAGAGGCCAUGCAAAGCACAGGGCUCAGCUCUUCCUUUACACUGACUGUAGACAACAGAGGAUUGAGCAUCA
B10: 139369889_139370009_2192_CDS_ENSG00000148396_ENST00000313050|human|control|control (ssRNA)
RNA: GGGAGUUCUACAGUCCGACGAUCCCACAGAGUCGUUGCUGGGCUCUCACACUUCACGGGCCCCUGGGUCCUGGCUGAAGGCCUCUUCUCGGGUGCUGGAUACACAGUAUCCAAGGGCGGUGCCCCUGCGUGCGGAAGCAUGUGCAACAGAGGAUUGAGCAUCA
B11: chr10:33190432:33190433:-_ENSG00000150093_ENST00000302278|hu_mus|hu_hu_hu_mus_True|8_58 (ssRNA)
RNA: GGGAGUUCUACAGUCCGACGAUCUACAUUUUCCAAACCUGCAUGUGAAUAAAACCCUGGCCACAGAGCCCCAAAACUACCUAACUGUGACUAAGAUGCUGCUGCUGUGAGCUUGGUGUUGCAAAAUUUUGCACGGGAGGAUUCCAACAGAGGAUUGAGCAUCA
B12: chr11:74490848:74490849:-_ENSMUSG00000020745_ENSMUST00000021091|mus_hu|FALSE|FALSE (ssRNA)
RNA: GGGAGUUCUACAGUCCGACGAUCACAGAUAGCAGAAAGAAAAACAGGAAUUAAUAAUCCAACAUAAAAUGACACUGUCAACUAUUCAGUUUAGUGCCCUAGUUCAAUUGAUUCAACUUCUGCCUUCUUAGGCCUGGUGUGACCCAACAGAGGAUUGAGCAUCA
B13: chr1:59768832:59768833:+_ENSMUSG00000026020_ENSMUST00000027174|mus_mus|motif|central (ssRNA)
RNA: GGGAGUUCUACAGUCCGACGAUCCAUACUGACUCACAACCAUCCAGGUUAAACAAUGGAUUCUUUUGAACUCCACAGACGGAGGUGUAUAAGCAGUACACAUAUACACAUGCAAGAAAAACAAGAGACACAUAGACACACAUGCAACAGAGGAUUGAGCAUCA
B14: chr7:135612270:135612271:-_ENSG00000105887_ENST00000393085|hu_mus|hu_hu_hu_mus_False|28_78 (ssRNA)
RNA: GGGAGUUCUACAGUCCGACGAUCGUUUUUUUCUGAGAUGUUAAAUAGUACUUCAGUAACAAAACUUACUUAACCUUUUAUUAAUGCGUGUUGUACCAAAAGCAGACCAUGGUUUUACAUUUAUUCAAAAAUAUUAACAUUAAGCAACAGAGGAUUGAGCAUCA
B15: 3797199_3800170_768_3pUTR_ENSG00000110713_ENST00000324932|human|control|control (ssRNA)
RNA: GGGAGUUCUACAGUCCGACGAUCGUGGUAUUUGUGGUUCCAAAGAGUCCUCCACUGCUAGUACUGGUUCCAAAAUUGCCAAAGCCAGUUGGUUUAUUUUGUGCAAAGGCAUUGUUUUGGGAUGAGAAGAGACUGGUCCCUGUGCAACAGAGGAUUGAGCAUCA
B16: chr17:57746147:57746148:+_ENSG00000141367_ENST00000269122|hu_mus|motif|central (ssRNA)
RNA: GGGAGUUCUACAGUCCGACGAUCUUGCCCAGUCUUGCAAGCCGCCUGAAUAUAUUUAAAGUGCACAUCUGGGUCCUGACGGAAGUUAACAAUGGACCCCAGAAAAUAAAAGAGACCUUCAAAACUCUUGAAUGAUUCAAAGAGCAACAGAGGAUUGAGCAUCA
B17: chr1:115268999:115269000:-_ENSG00000009307_ENST00000339438|hu_mus|motif|central (ssRNA)
RNA: GGGAGUUCUACAGUCCGACGAUCUAAAAGUCUCACGCAAGUUGCAAUCUGCUGUCCAGGCCUCUGUUUGUCACUAAUACGGAAUUCAACCUUAUCUCCUAUUUGAGGAGAAGUAGAUCCUUCCACAUCCUUGGCUUGAAAAGCCAACAGAGGAUUGAGCAUCA
B18: chr8:24034084:24034085:+_ENSMUSG00000031540_ENSMUST00000044331|mus_mus|FALSE|FALSE (ssRNA)
RNA: GGGAGUUCUACAGUCCGACGAUCGUUCCCAUCAACCUCAAAGACAGAAAUAUUAUUCUUUCGGUAAAUCUCAUUGGCAGGAGGAUGGAACCAACCACAUUUCUUCAUGUGCUGCUGUAGAAUAGUUCUACUUUUCAUAUAUUUCAACAGAGGAUUGAGCAUCA
B19: chr4:38702237:38702238:+_ENSG00000109787_ENST00000261438|hu_hu|FALSE|FALSE (ssRNA)
RNA: GGGAGUUCUACAGUCCGACGAUCUAAGCAGAAAGAUUAUUUUGACCCUCUAACACUAAGUACAUAACAGAAAAAAAAGUGCUAGUAUUUGUAAAACAAUAUUGUUGUAGCCCUCGUUUAAUGCAUGUAAAGAUGGCUUUGUAACAACAGAGGAUUGAGCAUCA
B20: chr1:220276048:220276049:+_ENSG00000067704_ENST00000302637|hu_hu|hu_hu_hu_mus_True|28_58 (ssRNA)
RNA: GGGAGUUCUACAGUCCGACGAUCGCAAAUUGCCUGGUUGGCGGGAAUUGUCCAAGGCUGGGUGGUCCAAACUAAAAUACUAACAGGGGAUGAGGCAUCUGUAAGAGAUGCCAAUUUCGGAGGAGGUCUCAGGAGGGGGAAUCUCAACAGAGGAUUGAGCAUCA
B21: chr15:12753431:12753432:-_ENSMUSG00000022195_ENSMUST00000057256|mus_hu|motif|central (ssRNA)
RNA: GGGAGUUCUACAGUCCGACGAUCUGGAUGUGAGUCGAAAUGUAAAAAACUUACAUUACUGGCAGGAAGAUGCUUUGAGCCGGUGGCCCGGUAUAUAAAGGGUAGAACCUCCUGAUGAUCCUCCACCACCCACACUGGGAGCUUCAACAGAGGAUUGAGCAUCA
B22: 73041835_73044820_1103_3pUTR_ENSMUSG00000016382_ENSMUST00000114059|mouse|control|control (ssRNA)
RNA: GGGAGUUCUACAGUCCGACGAUCCAUACUUUCGGCUCUCUUUAAAUCAUCAGUUUCAUUGAAACCUGACAUGUUAAUAUCUAUCCGUGGCUCCCCUUCUUUCUGUCCCUUCGGUGCGAUUUGAUUGAGCAGAUGGAAAUAGGCCAACAGAGGAUUGAGCAUCA

This passage reports binding signal results from PMC12136788.

This is one part of the list.

The assay has as its target T1, UNK ZnF1-3 (human, UniProt Q9C0B0 31-174).
T1 sequence: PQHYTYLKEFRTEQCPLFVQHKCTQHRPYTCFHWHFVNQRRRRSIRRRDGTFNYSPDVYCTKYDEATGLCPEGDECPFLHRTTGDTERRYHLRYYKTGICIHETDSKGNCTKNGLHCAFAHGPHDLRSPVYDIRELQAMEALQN
Briefly: nsRBNS (natural sequence RNA bind-n-seq); RBNS binding buffer (assumed for nsRBNS): 25 mM Tris pH 7.5, 150 mM KCl, 3 mM MgCl2, 0.01% Triton X-100, 500 ug/ml BSA, 20 U/ml SUPERase-In, 4 C; UNK is unkempt and MSI1 is Musashi-1; names of the RNAs are library labels; protein concentration not given here; high values mean tight binding.
Molecule B1 returned a binding signal of 0.807 enrichment R. For B2 the value was 0.736 enrichment R. The value for B3 was 0.926 enrichment R; that for B4 was 0.769 enrichment R; that for B5 was 1.05 enrichment R. In turn, B6 displayed a binding signal of 2.39 enrichment R. Turning to B7, the binding signal stood at 1.25 enrichment R. For B8 the value was 1.02 enrichment R; for B9, 0.897 enrichment R; for B10, 0.68 enrichment R. B11 had a binding signal of 1.32 enrichment R. The value for B12 was 0.773 enrichment R. For B13 the value was 1.38 enrichment R. For B14 the value was 0.897 enrichment R. For the molecule B15, the binding signal came to 0.741 enrichment R. For B16 the value was 1.72 enrichment R; for B17, 0.719 enrichment R; for B18, 0.895 enrichment R. The value for B19 was 0.786 enrichment R; that for B20 was 2.34 enrichment R.

B21 registered a binding signal of 1.37 enrichment R.

On to B22, for which the binding signal amounted to 1.06 enrichment R.
